Assay results: ChEMBL document CHEMBL1201862, “PubChem BioAssay data set” (2004)
Structures can show the parent of a compound that is named as a salt.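 The compound was tested at five concentrations on cells cultured in 96-well plates, with a 48-hour exposure period. At the GI50, growth is halved.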 The source made the active and inactive calls. Cut-off read from the data, not from the text of the source: active = GI50 up to about 1.1 µM and inactive = higher. Numbered stars: 1 amine (or outer) side, 2 acyl side, 3 side chain; on linkers, the order of the positions; unused ones are H or OH. Bridge positions count the residues as written; N and C are the ends. Square brackets hold non-standard residues; d marks the D form. Peptide text beside a SMILES is read from it. * marks the point of attachment. ξ: configuration not given here. X20 = COC1=CC(=O)N(C(=O)C(O*)C(C)C)C1Cc1ccccc1; X52 = CC(C)C(C)C(C(=O)[*:2])N(C)[*:1]; γGlu = O=C(O)[CH](CCC(=O)[*:2])N[*:1]; Picolinoyl(3-OH) = O=C(c1ncccc1O)*; NMePhg = CN[CH](C(=O)O)c1ccccc1; ξNMe2Val = CC(C)C(C(=O)*)N(C)C; Hyp = O=C(O)[CH]1C[CH](O)CN1; NMeV = CN[CH](C(=O)O)C(C)C; NHBn = c1ccc(CN*)cc1; Sar = CNCC(=O)O; NHOH = ON*

system: NCI-H322M; assay: DTP human tumour cell line panel, 48 h

| SMILES | GI50 |
| --- | --- |
| CC(C)CC1NC(=O)C(NC(=O)c2ncccc2O)C(C)OC(=O)C(c2ccccc2)N(C)C(=O)C(C)NC(=O)C(C(C)C(C)C)N(C)C(=O)CN(C)C(=O)C2CC(O)CN2C1=O (stereo unspecified) ({Picolinoyl(3-OH)}-TL[Hyp][Sar][X52]A[NMePhg]; ester 1-C; configuration not given here) | inactive: 68.5 µM |
| CCOC(=O)CNC(=O)C(CCC(=O)NO)NC(=O)CCC(N)C(=O)O (stereo unspecified) (γGlu-Glu(NHOH)-Gly-OEt; configuration not given here) | inactive: > 100 µM |
| CC(C)C(NC(=O)C(C(C)C)N(C)C)C(=O)N(C)C(C(=O)N1CCCC1C(=O)N1CCCC1C(=O)NCc1ccccc1)C(C)C (stereo unspecified) (ξNMe2Val-V[NMeV]PP-NHBn; configuration not given here) | active: 0.01 µM |
| COC1=CC(=O)N(C(=O)C(OC(=O)C2CCCN2C(=O)C2CCCN2C(=O)C(C(C)C)N(C)C(=O)C(NC(=O)C(C(C)C)N(C)C)C(C)C)C(C)C)C1Cc1ccccc1 (stereo unspecified) (ξNMe2Val-V[NMeV]PP-X20; configuration not given here) | active: 0.00843 µM |
| O=C(O)c1ccccn1 [2-PICOLINIC ACID] | inactive: > 100 µM |
| COc1ccc(-c2oc3c(OC)c(OC)c(OC)c(OC)c3c(=O)c2OC)cc1OC [3,5,6,7,8,3',4'-HEPTAMETHOXYFLAVONE] | inactive: 64.7 µM |
| COc1ccc(-c2oc3ccccc3c(=O)c2O)cc1OC [3-HYDROXY-3',4'-DIMETHOXYFLAVONE] | inactive: > 100 µM |
| CN1C(=O)CSC1=S [3-METHYL-RHODANINE] | inactive: > 100 µM |
| Cc1ccc2cc3c(ccc4ccccc43)c3c2c1CC3 [3-METHYLCHOLANTHRENE] | inactive: > 100 µM |
| COc1ccc(-c2coc3cc(OC)cc(O)c3c2=O)cc1 [4',7-DIMETHOXY-5-HYDROXYGENISTEIN] | inactive: > 100 µM |
| C=CC(C1=CC(=O)C(OC)=CC1=O)c1ccccc1 (stereo unspecified) [4-METHOXYDALBERGIONE] | inactive: 15.2 µM |
| COc1ccc(-c2cc(=O)c3c(O)c(OC)c(OC)c(OC)c3o2)cc1OC [5-DEMETHYLNOBILETIN] | inactive: > 100 µM |
| COc1c(O)c(C=O)c2c(O)c(-c3c(C)cc4c(C(C)C)c(OC)c(O)c(C=O)c4c3O)c(C)cc2c1C(C)C [6,6'-METHOXYGOSSYPOL] | inactive: 5.32 µM |
| Nc1nc(OCc2ccccc2)c2nc[nH]c2n1 [6-O-BENZYLGUANINE] | inactive: 91 µM |
| CCc1c2c(nc3ccc(O)cc13)-c1cc3c(c(=O)n1C2)COC(=O)[C@]3(O)CC [7-ETHYL-10-HYDROXYCAMPTOTHECIN] | active: 0.00187 µM |
| CN(C)CCCN1c2ccc(O)cc2Sc2ccc(Cl)cc21 [7-HYDROXYCHLORPROMAZINE] | inactive: 14.5 µM |
| Nc1nc(O)c2[nH]nnc2n1 [8-AZAGUANINE] | inactive: 20.9 µM |
| O=C1C=C2S[C@H]3C[C@]2(C=C1Br)C1=C(N3)C(=O)c2[nH]cc3c2C1=NCC3 [(+)-DISCORHABDIN B] | inactive: 2.99 µM |
| CO[C@@H]1C=C[C@@]23c4cc5c(cc4CN(C[C@@H]2O)[C@H]3C1)OCO5 [(+)-HAEMANTHAMINE] | inactive: 18.2 µM |
| COc1cc(/C=C/c2ccc(OC)c(OC)c2)cc(OC)c1 [(E)-3,4,3',5'-TETRAMETHOXYSTILBENE] | inactive: 37.4 µM |
| CC(C)C1=CC2=CC[C@@H]3[C@](C)(CCC[C@@]3(C)C(=O)O)[C@H]2CC1 [ABIETIC ACID] | inactive: 65.3 µM |
| CC(=O)OC(/C=C1/C=CC(=O)O1)COC(=O)c1ccccc1 (stereo unspecified) [ACETYLMELODORINOL] | inactive: > 31.2 µM |

| SMILES | GI50 |
| --- | --- |
| CCCCOC(=O)CC(CC(=O)OCCCC)(OC(C)=O)C(=O)OCCCC [ACETYLTRIBUTYL CITRATE] | inactive: > 200 µM |
| CC(=O)N(C)c1ccc(Nc2cc(C)nc3ccc4nc[nH]c4c23)cc1 [ACODAZOLE HYDROCHLORIDE] | inactive: 8.17 µM |
| CC(=O)NCC1(c2ccccc2)CCN(CC2COc3ccccc3O2)CC1 (stereo unspecified) [ACOXATRINE] | inactive: > 100 µM |
| COc1cc2c(c3c1c(=O)c1ccccc1n3C)C=CC(C)(C)O2 [ACRONINE] | inactive: > 100 µM |
| COc1ccc2c(=O)c3ccoc3n(CC=C(C)C)c2c1 [ACROPHYLLINE] | inactive: 74.3 µM |
| C[C@]12CC[C@H](OC3OC(CO)C(O)C(O)C3O)C[C@H]1CC[C@@H]1[C@@H]2CC[C@]2(C)[C@@H](C3=CCOC3=O)CC[C@]12O (stereo partly specified) [ACTODIGIN] | inactive: 26.1 µM |
| Nc1ccc(S(=O)(=O)c2ccc(NCN3C(=O)NC(=O)C(=O)C3=O)cc2)cc1 [ALLANTODAPSONE] | inactive: > 100 µM |
| O=C1c2cccc(O)c2C(=O)c2c(O)cc(CO)cc21 [ALOE-EMODIN] | inactive: 48.6 µM |
| O=C1Cc2c([nH]c3ccc([N+](=O)[O-])cc23)-c2ccccc2N1 [ALSTERPAULLONE] | active: 0.282 µM |
| CC1=C2CC3=C(C)C(=O)O[C@H]3C[C@@H](C)[C@@H]2CC1 [AMERICANOLIDE D] | inactive: > 100 µM |
| Nc1ccc(C(=O)O)cc1 [AMINOBENZOIC ACID] | inactive: > 100 µM |
| Cc1c(F)c(N)c2c(=O)cc(-c3ccc(N)c(F)c3)oc2c1F [AMINOFLAVONE] | inactive: 23.9 µM |
| CCC1(c2ccc(N)cc2)CCC(=O)NC1=O (stereo unspecified) [AMINOGLUTETHIMIDE] | inactive: 3690 µM |
| CCCCc1oc2ccccc2c1C(=O)c1cc(I)c(OCCN(CC)CC)c(I)c1 [AMIODARONE HYDROCHLORIDE] | inactive: 4.93 µM |
| CN(C)CCN1C(=O)c2cccc3cc(N)cc(c23)C1=O [AMONAFIDE] | inactive: 4.43 µM |
| COc1cc(NS(C)(=O)=O)ccc1Nc1c2ccccc2nc2ccccc12 [AMSACRINE] | inactive: 3.78 µM |
| N=c1ccn2c(n1)O[C@H]1[C@H](O)[C@@H](CO)O[C@H]12 [ANCITABINE HYDROCHLORIDE] | inactive: 778 µM |
| C=C1[C@@H]([C@@]2(C)C=CC(=O)C(C)(C)[C@@H]2CC(=O)OC)CC[C@@]2(C)[C@H](c3ccoc3)OC(=O)[C@H]3O[C@]132 [ANDIROBIN] | inactive: > 100 µM |
| COc1ccc(C[C@H]2NC[C@H](O)[C@H]2OC(C)=O)cc1 [ANISOMYCIN] | active: 0.0208 µM |
| CCCC[C@H]1C(=O)O[C@H](C)[C@H](NC(=O)c2cccc(NC=O)c2O)C(=O)O[C@@H](C)[C@@H]1OC(=O)CC(C)C [ANTIMYCIN A3] | inactive: 11.7 µM |
| O=C1CC[C@H](NC(=O)Cc2ccccc2)C(=O)N1 [ANTINEOPLASTON A10] | inactive: > 1250 µM |
| O=c1cc(-c2ccc(O)cc2)oc2cc(O)cc(O)c12 [APIGENIN] | inactive: 29.9 µM |

| SMILES | GI50 |
| --- | --- |
| COc1ccc(C/C(=N/O)C(=O)NCCc2cc(Br)c(OCCCN(C)C)c(Br)c2)cc1Br [APLYSAMINE 2] | inactive: 16.8 µM |
| CC[C@@]1(O)C(=O)OCc2c1cc1n(c2=O)Cc2c-1nc1ccc(O)cc1c2[Si](C)(C)C(C)(C)C [AR-67] | active: 0.0313 µM |
| COc1cccc2c1cc([N+](=O)[O-])c1c(C(=O)O)cc3c(c12)OCO3 [ARISTOLOCHIC ACID] | inactive: 55.3 µM |
| Nc1ccc([As](=O)(O)O)cc1 [ARSANILIC ACID] | inactive: > 100 µM |
| C[N+]1(C)[C@@H]2CC[C@H]1C[C@@H](OC(=O)C(CO)c1ccccc1)C2 (stereo partly specified) [ATROPINE METHYLBROMIDE] | inactive: > 100 µM |
| COc1cc([C@@H]2c3cc4c(cc3C[C@H]3COC(=O)[C@@H]32)OCO4)cc2c1OCO2 [AUSTROBAILIGNAN 1] | active: < 0.01 µM |
| CCOC(=O)C1=C(C)NC(C)=C(C(=O)OCCNC(=O)c2ccc(N=[N+]=[N-])cc2)C1c1ccccc1C(F)(F)F (stereo unspecified) [AZIDOPINE] | inactive: 22.4 µM |
| C[C@H](N)C(=O)N[C@@H]1[C@H]2C(=C(O)C[C@@H](O)[C@@H]2O)C(=O)O[C@]1(C)C(Cl)Cl [BACTOBOLIN] | active: 0.201 µM |
| CC1(C)CC[C@]2(C(=O)O)CC[C@]3(C)[C@H](C(=O)C=C4[C@@]5(C)C=C(C#N)C(=O)C(C)(C)[C@@H]5CC[C@]43C)[C@@H]2C1 [BARDOXOLONE] | active: 0.575 µM |
| CCCCCCCCCCCCCC(=O)O[C@H]1CC[C@H](NC(=O)[C@H](OC)[C@H](O)[C@@H](O)[C@H](O)/C=C/C(C)C)C(=O)NC1 [BENGAMIDE A] | active: 0.0289 µM |
| CCCCCCCCCCCCCC(=O)O[C@H]1CC[C@H](NC(=O)[C@H](OC)[C@H](O)[C@@H](O)[C@H](O)/C=C/C(C)C)C(=O)N(C)C1 [BENGAMIDE B] | inactive: > 15 µM |
| CC(C)(C)CC(C)(C)c1ccc(OCCOCC[N+](C)(C)Cc2ccccc2)cc1 [BENZETHONIUM CHLORIDE] | inactive: 10.5 µM |
| CN1[C@@H]2CC[C@H]1C[C@@H](OC(c1ccccc1)c1ccccc1)C2 [BENZTROPINE MESYLATE] | inactive: 24 µM |
| S=C=NCc1ccccc1 [BENZYL ISOTHIOCYANATE] | inactive: 13.9 µM |
| COc1cc([C@@H]2c3cc4c(c(O)c3C[C@H]3COC(=O)[C@@H]32)OCO4)cc(OC)c1OC [BETA-PELTATIN A] | active: 0.015 µM |
| CC[C@H](CC[C@@H](C)[C@H]1CC[C@H]2[C@@H]3CC=C4C[C@@H](O)CC[C@]4(C)[C@H]3CC[C@]12C)C(C)C [BETA-SITOSTEROL] | inactive: > 100 µM |
| C[N+]1(C)C[C@@H](O)C[C@@H]1C(=O)[O-] [BETONICINE] | inactive: > 100 µM |
| COc1ccc(-c2oc3cc(O)c(OC)c(O)c3c(=O)c2O)cc1 [BETULETOL] | inactive: 20.2 µM |
| C=C(C)[C@@H]1CC[C@]2(C(=O)O)CC[C@]3(C)[C@H](CC[C@@H]4[C@@]5(C)CC[C@H](O)C(C)(C)[C@@H]5CC[C@]43C)[C@@H]12 [BETULINIC ACID] | inactive: 10.6 µM |
| C=C(C)[C@@H]1CC[C@]2(CO)CC[C@]3(C)[C@H](CC[C@@H]4[C@@]5(C)CC[C@H](O)C(C)(C)[C@@H]5CC[C@]43C)[C@@H]12 [BETULIN] | inactive: 3.58 µM |
| COC1=CC(=O)c2c(c(O)c3oc4cc(OC)cc(C)c4c(=O)c3c2O)C1=O [BIKAVERIN] | inactive: 4.53 µM |
| C=C(C(=O)OC)[C@@H]1C[C@@H](OC(C)=O)C2=C[C@H](C[C@@]3(C)O[C@@H]3C3=CC(C)=C(O3)[C@H]1OC(C)=O)OC2=O [BIPINNATIN I] | inactive: 35.2 µM |
